Data from PubChem BioAssay AID1460 (National Center for Advancing Translational Sciences (NCATS), 2008).
Several values for one entry are separate records, joined by “and”; a condition that tells them apart may be missing. Identical values can stand only once. The whole screen tested about 270,000 compounds, of which about 5,800 (2.1%) were called active. This list was built around the results that the source calls inconclusive (neither active nor inactive); the mix of calls is not that of the screen. Calls come from the whole dose curve; as a rule, active = well fitted inhibition curve with a large enough effect; inconclusive = small, poorly fitted or top-dose-only effect; inactive = flat fitted curve, though single readings scatter. A potency beside an inconclusive call is a rough fit, not a confirmed value.

Biological target: Microtubule-associated protein tau (Homo sapiens) (UniProt P10636)
UniProt P10636, sequence (P10636 whole entry, looked up): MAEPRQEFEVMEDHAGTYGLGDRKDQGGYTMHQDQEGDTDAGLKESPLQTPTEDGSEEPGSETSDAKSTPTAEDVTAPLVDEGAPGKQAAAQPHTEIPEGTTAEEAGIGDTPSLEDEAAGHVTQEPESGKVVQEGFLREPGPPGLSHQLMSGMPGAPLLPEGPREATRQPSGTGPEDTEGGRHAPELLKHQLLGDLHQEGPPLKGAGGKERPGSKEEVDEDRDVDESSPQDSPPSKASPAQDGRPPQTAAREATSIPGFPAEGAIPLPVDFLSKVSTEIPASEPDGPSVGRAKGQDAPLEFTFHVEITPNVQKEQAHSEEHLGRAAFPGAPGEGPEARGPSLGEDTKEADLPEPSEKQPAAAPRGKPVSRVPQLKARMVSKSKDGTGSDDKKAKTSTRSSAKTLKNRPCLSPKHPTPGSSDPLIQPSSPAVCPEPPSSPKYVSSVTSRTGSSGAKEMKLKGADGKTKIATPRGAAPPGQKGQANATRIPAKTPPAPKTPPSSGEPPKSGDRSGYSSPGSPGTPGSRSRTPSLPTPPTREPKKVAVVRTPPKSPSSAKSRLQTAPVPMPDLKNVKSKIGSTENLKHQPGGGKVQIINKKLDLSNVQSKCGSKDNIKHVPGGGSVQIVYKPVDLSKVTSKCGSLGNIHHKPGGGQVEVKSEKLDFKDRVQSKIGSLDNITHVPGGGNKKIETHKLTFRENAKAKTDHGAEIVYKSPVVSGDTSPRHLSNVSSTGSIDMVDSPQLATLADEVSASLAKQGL
Assay: qHTS for Inhibitors of Tau Fibril Formation, Thioflavin T Binding; note: nearly all actives have a fitted effect of over 55% in size
Details: recombinant tau K18 P301L (four-repeat tau fragment), heparin-induced fibrillization, ThT fluorescence; series mostly up to 57.4 µM
Summary of the method: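 Recombinant human tau K18 fragment […] carrying P301L, 15 uM unlabeled plus 0.24 uM Alexa 594-labeled, was fibrillized with 20 uM heparin in 100 mM sodium acetate pH 7 for 6 hr at 37 C; 30 uM ThT fluorescence read after 1 hr.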
% is set by controls: 0 for no effect and ±100 for the full control effect; potency is the fitted concentration of half-maximal effect; tags give direction and shape of the fitted curve.

SMILES | Potency | activity, negative = inhibition
Clc1cccc(-c2csc(-c3nc(-c4ccc(Br)s4)cs3)n2)c1 | inactive | 
O=C(Nc1ccc(O)c(-c2nc3ccccc3s2)c1)C1=COCCO1 | inconclusive: 5.62 µM [inhibitor, partial curve] | 
COc1ccc(C=C(c2nc3ccccc3s2)c2nc3ccccc3s2)cc1O | inconclusive: 10 µM [inhibitor, partial curve] | 
COc1cccc(/C=N/N2C(=O)C3C4c5ccccc5C(c5ccccc54)C3C2=O)c1OC (stereo not given) | inactive | 
S=c1[nH]c2cc(-c3ccccc3)ccc2o1 | inconclusive: 20 µM [inhibitor, single point] | 
CCc1ccc(NC(=O)Cn2ncc3c4ccccc4n(C)c3c2=O)cc1 | inconclusive: 282 nM [inhibitor, full curve, poor fit] and inconclusive: 6.31 µM [inhibitor, partial curve] | 
CSc1ccccc1NC(=O)CN(C)CC(=O)Nc1cccc(Br)c1 | inconclusive: 12.6 µM [inhibitor, partial curve] | 
COc1ccc(NC(=O)/C(C#N)=C/c2cc(C)n(-c3ccc(N4CCOCC4)c([N+](=O)[O-])c3)c2C)cc1 | inconclusive: 4.47 µM [inhibitor, full curve] | 
CCOC(=O)CCSc1nc(C)c2cc(C)c(C)cc2n1 | inconclusive: 31.6 µM [inhibitor, single point] | 
COc1cccc(CNC(=O)Cn2cc3c(n2)-c2c(oc(C(=O)N4CCCC4)c2C)CC3)c1 | inconclusive: 28.2 µM [inhibitor, single point] | 
CC(C(=O)NCCN1C(=O)S/C(=C\c2cccs2)C1=O)N1C(=O)c2ccccc2C1=O (stereo not given) | inactive | 
CCn1c(SCC(=O)c2ccc([N+](=O)[O-])cc2)nnc1-c1ccc(Cl)cc1 | inconclusive: 3.16 µM [inhibitor, full curve] | 
N#C/C(=C/c1cc[nH]c1)C(N)=S | inconclusive: 35.5 µM [inhibitor, partial curve] | 
CC1=CC(C)C(C(=O)O)C(C(=O)O)C1 (stereo not given) | inactive | 
COc1cc2[nH]c(=S)n(Cc3ccc(C)cc3)c(=O)c2cc1OC | inconclusive: 5.01 µM [inhibitor, full curve, poor fit] | 
C=CCn1c(=S)[nH]c2scc(-c3ccc(C)o3)c2c1=O | inconclusive: 5.01 µM [inhibitor, partial curve] | 
CCOC(=O)c1c(C)n(-c2ccccc2)c2ccc(OC(=O)c3ccc(OCC)c(OCC)c3)cc12 | inconclusive: 11.2 µM [inhibitor, partial curve] | 
CC1(OC(=O)c2cccs2)C(=O)C=C2C=C3CCCN3C=C2C1=O (stereo not given) | active: 5.01 µM | 
CCOC(=O)c1c(C)oc2c1c(CN1CCN(C(=O)OCC)CC1)c(O)c1ccccc12 | inconclusive: 22.4 µM [inhibitor, single point] | 
COc1ccccc1N1CCN(c2nc3ccc(C)cc3nc2-n2nc(C)cc2C)CC1 | inconclusive: 22.4 µM [inhibitor, partial curve] | 
CCC(N=c1cc(-c2ccc(OC)cc2)oc2ccc(C)cc12)C(=O)O (stereo not given) | inconclusive: 8.91 µM [inhibitor, partial curve] | 
CCCN1CCN(CCCNC(=O)c2ccc3c(c2)sc2nc(-c4ccc(C)cc4)cn23)CC1 | inactive | 
Cc1cc(C)cc(OCc2cc(=O)n3cc(C)sc3n2)c1 | inconclusive: 14.1 µM [inhibitor, partial curve] | 
COCC(C)N1C(=O)Cc2c1nc(N)c1c(N)nc(N3CCN(c4ccccc4F)CC3)c(C#N)c21 (stereo not given) | active: 25.1 µM | 

SMILES | Potency | activity, negative = inhibition
N#C/C(=C\c1ccc(Sc2nc3ccccc3[nH]2)o1)c1ccccc1 | inconclusive: 11.2 µM [inhibitor, partial curve] | 
O=C(C1CCN(c2nc3ccccc3[nH]2)CC1)N1CCN(c2ccccc2)CC1 | inconclusive: 25.1 µM [inhibitor, single point] | 
COc1cc(NC(=O)c2ccco2)c(OC)cc1NC(=O)CSc1ncc(-c2ccc(F)cc2)[nH]1 | inactive | 
CC(=O)N1CCN(c2ccc(NC(=O)c3ccc4c(c3)OCO4)cc2)CC1 | inconclusive: 3.55 µM [inhibitor, partial curve] | 
CC(C)CCc1noc(CN2CCN(c3ccc(Cl)cn3)CC2)n1 | inactive | 
COc1ccc(-c2nn(-c3ccccc3)cc2CNCCN2CCOC2=O)c(F)c1 | inconclusive: 28.2 µM [inhibitor, single point] | 
Cc1ccc(-c2sc(C(=O)NN)c(C)c2C#N)cc1 | inactive | 
O=C(CSc1ncn(-c2ccccc2)n1)Nc1nc2c(s1)CCCC2 | inconclusive: 25.1 µM [inhibitor, partial curve] | 
Cc1cccc(Nc2ccccc2C(=O)OCC(=O)N(C)C2CCS(=O)(=O)C2)c1C (stereo not given) | inconclusive: 14.1 µM [inhibitor, partial curve] | 
O=C(c1cc(-c2ccc(Cl)c(Cl)c2)on1)N1CCN(c2ccccc2)CC1 | inconclusive: 5.01 µM [inhibitor, partial curve] | 
COc1ccc(NC(=O)Cn2c(=O)n(-c3ccc(CC(=O)NCC4CCCO4)cc3)c(=O)c3ccccc32)c(OC)c1 (stereo not given) | inactive | 
O=C(CSc1nc(NS(=O)(=O)c2ccccc2)cc(=O)[nH]1)Nc1ccc(Cl)cc1 | inactive | 
CC1S/C(=N/N=C2CCC(C(C)(C)C)CC2)NC1=O (stereo not given) | inconclusive: 17.8 µM [inhibitor, single point] | 
CC(NC(=O)CCc1nnc(-c2ccc(-c3ccccc3)cc2)o1)c1nc2ccccc2[nH]1 (stereo not given) | inconclusive: 17.8 µM [inhibitor, partial curve] | 
CON(C)C(=O)c1nnc2c3ccccc3n(S(=O)(=O)c3ccc(C)cc3)c2n1 |  | inactive: -8.5% [at 11.5 µM] and inactive: -4.95% [at 11.5 µM]
O=C(C1CCN(c2ccc(N3CCOCC3)nn2)CC1)N1CCc2ccccc2C1 | inconclusive: 7.94 µM [inhibitor, full curve] | 
COC(=O)c1c(-c2c(Cl)cccc2Cl)noc1NC(=O)NN1CCCCC1 | inconclusive: 14.1 µM [inhibitor, partial curve, poor fit] | 
Cc1cc(C)n2nc(N)c(N=Nc3ccc4c(c3)OCO4)c2n1 | inactive | 
CCN1C(=O)c2cccc3c(NC(=O)C4CCCCC4)ccc1c23 | inconclusive: 31.6 µM [inhibitor, single point] | 
O=C(CCc1ccccc1)OCCN1CCOCC1 | inactive | 
COc1cc2[nH]c(C(=O)NN)c(N)c2cc1OC | active: 15.8 µM | 
O=C(CCN1CCCCC1)N=Nc1c(O)[nH]c2ccccc12 | inconclusive: 3.55 µM [inhibitor, full curve] | 
Cc1nc(NCc2ccccc2)c2nc(-c3ccccc3)n(CCN3CCCC3)c2n1 | inactive | 
COc1cccc(-c2nnc(SCc3nc4ccccc4s3)n2C)c1 | inconclusive: 22.4 µM [inhibitor, partial curve] | 

SMILES | Potency | activity, negative = inhibition
Cc1ccc(-c2nnc(Nc3ccc(Cl)cc3)c3ccccc23)cc1S(=O)(=O)N1CCOCC1 | inconclusive: 25.1 µM [inhibitor, single point] | 
O=C(CSCC(=O)Nc1cccc([N+](=O)[O-])c1)Nc1ccccc1 | inconclusive: 17.8 µM [inhibitor, single point] | 
CCN(CC)c1ccc2cc(/C(N)=N/NC(=O)c3cccs3)c(=O)oc2c1 | active: 0.794 µM | 
CC(=O)Nc1cccc(-c2csc(Nc3ncccn3)n2)c1 | inconclusive: 8.91 µM [inhibitor, partial curve] | 
O=C(CCc1ccccc1)NCCc1csc(-c2cccc(F)c2)n1 | inactive | 
C/C=C/C(=O)C[C@H]1CC[C@@H](C)[C@@H](CCO)O1 | inactive | 
CC(C)CO/N=C1/C[C@@H](O)[C@@H](O)[C@@H]2[C@@H]3C(=O)N(C4CCCCC4)C(=O)[C@H]3CC[C@@H]12 |  | inactive: -14.5% [at 11.5 µM]
Cc1cc(C)c2c(-n3cccc3)c(C(=O)NCCCN3CCCCC3)sc2n1 | inactive | 
C=C(C)CN1C(=O)C(O)(CC(=O)c2ccc3c(c2)OCCO3)c2ccccc21 (stereo not given) | inactive | 
CC(=O)c1cccc(NC(=O)c2noc3c2CSc2ccccc2-3)c1 | inactive | 
COc1ccc(NC(=O)c2c(N)c(C(=O)c3ccc(C)cc3)n3ccccc23)cc1OC | inactive | 
O=C(CCC(=O)c1ccc(Oc2ccccc2)cc1)Nc1cccc(Cl)c1Cl | inconclusive: 17.8 µM [inhibitor, partial curve] | 
Nc1nc(-c2ccccc2)c(N=Nc2cccnc2)s1 | active: 2.82 µM | 
CCOC(=O)C(C(C)C)C(N)Cc1ccc(F)cc1 (stereo not given) | inactive | 
O=C(NNc1c2ccccc2nc2ccccc12)C(O)c1ccccc1 (stereo not given) | active: 14.1 µM | 
Cn1c(=O)[nH]c(=O)c2c1nc(N1CCCCCC1)n2CC(N)=O | inactive | 
COc1cc(-c2nc(-c3ccccc3)c(-c3cccs3)[nH]2)cc(OC)c1O | inconclusive: 28.2 µM [inhibitor, partial curve] | 
O=C1CS/C(=C\[N+](=O)[O-])N1c1ccc(OC(F)(F)F)cc1 | inconclusive: 15.8 µM [inhibitor, partial curve] | 
COc1ccccc1C1C2=C(N=c3s/c(=C/c4cccc(OCC(=O)O)c4)c(=O)n31)c1ccccc1CC2 (stereo not given) | active: 15.8 µM | 
Cc1cccc2c1-c1sc(C(=O)NCCc3ccc(Cl)cc3)cc1CO2 | inconclusive: 1.78 µM [inhibitor, full curve] | 
CN(C)c1ccc(C(=O)NCC2CCCO2)cc1 (stereo not given) | inactive | 
Cc1ccc(-c2[nH]c3ccccc3c2SCCNC(=O)c2ccc(S(=O)(=O)N3CCOCC3)cc2)cc1 | inactive | 
